Molecules are shown by their SMILES. About 230 (0.21%) of roughly 110,000 compounds showed an effect of 50% or more. The list shows a part of the results.
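Also: 30 min substrate incubation versus DMSO and 10 µM JCP410 controls.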

The target of this test is DPAP1 (Plasmodium falciparum, UniProt Q8IIJ9). In words: primary screen, percent inhibition; read by cleavage of a fluorogenic dipeptide substrate; higher = more effect of the substance. Also noted: species or system P. falciparum D10 trophozoite lysates; single well.
Sequence of DPAP1 (Q8IIJ9 whole entry, looked up): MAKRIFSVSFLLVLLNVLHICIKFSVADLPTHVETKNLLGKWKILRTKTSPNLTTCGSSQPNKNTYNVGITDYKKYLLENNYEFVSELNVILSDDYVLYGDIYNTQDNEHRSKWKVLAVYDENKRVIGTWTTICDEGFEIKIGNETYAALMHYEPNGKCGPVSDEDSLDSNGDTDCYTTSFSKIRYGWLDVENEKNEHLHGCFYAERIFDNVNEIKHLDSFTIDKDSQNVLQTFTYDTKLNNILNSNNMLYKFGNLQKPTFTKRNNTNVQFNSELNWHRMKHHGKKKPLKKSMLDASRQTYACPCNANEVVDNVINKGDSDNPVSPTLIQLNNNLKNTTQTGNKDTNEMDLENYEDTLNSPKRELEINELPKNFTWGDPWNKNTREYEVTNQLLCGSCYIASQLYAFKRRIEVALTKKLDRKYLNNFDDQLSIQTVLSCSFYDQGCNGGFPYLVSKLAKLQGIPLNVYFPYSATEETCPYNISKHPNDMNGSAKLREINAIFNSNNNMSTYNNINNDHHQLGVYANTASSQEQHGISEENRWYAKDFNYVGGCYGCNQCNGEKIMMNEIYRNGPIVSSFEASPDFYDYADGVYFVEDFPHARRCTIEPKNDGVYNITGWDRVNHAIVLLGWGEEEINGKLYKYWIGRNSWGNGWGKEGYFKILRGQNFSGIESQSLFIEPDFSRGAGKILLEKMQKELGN
As to `Cc1ccc(S(=O)(=O)n2nc(-c3ccco3)nc2N)cc1`, the “% Inhibition @ 10 uM” value is listed as -1.92%.
The value for `CSc1ncc(C(=O)NCCc2c[nH]c3ccccc23)c(C)n1` was 1.11%.
In the case of `CC(Cc1ccccc1)Nc1nc2c(S(=O)(=O)c3ccccc3)nnn2c2ccsc12` (stereo not shown), the “% Inhibition @ 10 uM” value worked out at 0.581%.
For `Cc1ccc(-n2c(/C=C/N(C)C)c([N+](=O)[O-])c3ccc(O)c(CN(C)C)c32)cc1`, the “% Inhibition @ 10 uM” value is reported as -1.42%.
As to `CC1=C(C(=O)Nc2cccc(C)c2C)C(c2ccccc2Cl)NC(=O)N1` (stereo not shown), the “% Inhibition @ 10 uM” value was -10.2%.
With `Cc1c(C(=O)N2CCCC2)oc2c1-c1nn(CC(=O)N3CCC4(CC3)OCCO4)cc1CC2`, the “% Inhibition @ 10 uM” value is reported as 3.08%.
For the molecule `COC(=S)NC(=O)Cc1ccccc1Cl`, the “% Inhibition @ 10 uM” value was 5.03%.
As to `C=CCNC(=O)CN(c1cc(OC)ccc1OC)S(C)(=O)=O`, the “% Inhibition @ 10 uM” value is recorded as -3.48%.
The value for `N#C/C(=C\c1ccccc1Cl)c1nc(-c2ccc(Cl)c(Cl)c2)cs1` was -0.736%; that for `O=C1N=C(N2CCOCC2)S/C1=C\c1ccco1` was -5.28%; that for `CCOc1ccc(CCNC(=O)c2cc3c(s2)-c2ccccc2OC3)cc1` was -3.08%.
With `COc1ccc(CCNC(=O)CCc2c(C)nc3nc(C)nn3c2C)c(OC)c1`, the “% Inhibition @ 10 uM” value was determined as 2.93%.
Regarding `NC(=O)C1CCN(c2nc3c(S(=O)(=O)c4cccc(Cl)c4)nnn3c3ccsc23)CC1`, the “% Inhibition @ 10 uM” value is -8.1%.
Regarding `CNCC12CC3CC(C1)CC(c1ccc(C)cc1)(C3)C2`, the “% Inhibition @ 10 uM” value was -0.68%.
For the molecule `COc1cccc(CSc2nncn3c2cc2occc23)c1`, the “% Inhibition @ 10 uM” value came to 0.616%.
The value for `O=C(CCCCC(=O)N1CCc2ccccc21)N1CCc2ccccc21` was -4.01%; that for `CCN(CC)c1ccc(NC(=O)C(C)(C)C)cc1` was -3.63%.
With `Cc1cc(OCC(=O)Nc2ccc(S(=O)(=O)N3CCC(C)CC3)cc2)ccc1Br`, the “% Inhibition @ 10 uM” value is reported as -3.43%.
`C[C@@H](C[C@H](NC(=O)c1ccc(-c2cc(C(=O)O)ccc2Cl)cc1)C(=O)NC1(C#N)CCOCC1)c1ccccc1`: the “% Inhibition @ 10 uM” value was -1.5%.
Consider `C=C(C)CN(CC)Cc1cc(Cl)ccc1[N+](=O)[O-]`, for which the “% Inhibition @ 10 uM” value was -0.0494%.
As for `CC1CN(S(=O)(=O)c2ccc(-c3ccc(Cl)cc3)cc2)CC(C)O1` (stereo not shown), the figure is 3.9%; as for `Nc1nnc(-c2ccc([N+](=O)[O-])cc2)s1`, -0.0369%; as for `Clc1cccc(CN2CCOCC2)c1Cl`, 1.62%.
Regarding `Cc1cccc2cc(-c3ccccn3)nc(N)c12`, the “% Inhibition @ 10 uM” value was found to be 0.245%.
Take `COc1ccc(C2C(C(=O)c3ccc(C)cc3)=C(O)C(=O)N2c2ccccc2)cc1OC` (stereo not shown): the “% Inhibition @ 10 uM” value is -12.2%.
In the case of `COc1ccc(CNC(=O)C2Sc3nnc(C)n3NC2c2ccc(Cl)cc2)cc1` (stereo not shown), the “% Inhibition @ 10 uM” value is listed as 0.0289%.
As to `Cc1cccc(CSCCNS(=O)(=O)c2ccc3c(c2)OCCO3)c1`, the “% Inhibition @ 10 uM” value is recorded as -5.01%.
In the case of `CCOC(=O)c1c(NC(=S)NC(=O)c2cccnc2)sc2c1CCCC2`, the “% Inhibition @ 10 uM” value is 2.41%.
For `Cc1cc(=O)oc2c(C)c3occ(C(C)(C)C)c3cc12`, the “% Inhibition @ 10 uM” value was found to be 2.21%.
Consider `Cc1nnc(NC(=O)c2cccn(OCc3ccccc3)c2=O)s1`, for which the “% Inhibition @ 10 uM” value is reported as -1.66%.
With `COC(=O)C12CCC3(SCCS3)C(C(=O)OC)(CCC13SCCS3)C2`, the “% Inhibition @ 10 uM” value is listed as 0.00784%.
`CN(C(=O)c1cc(S(=O)(=O)N2CCCCC2)c[nH]1)C1CCCCC1`: the “% Inhibition @ 10 uM” value is listed as 7.63%.
As for `CC(C)N(CC#CC(O)(c1ccccc1)c1ccccc1)C(C)C`, the figure is -2.15%; as for `O=C(/C=C/c1ccccc1)n1nnc2ccccc21`, 4.41%; as for `Cc1nn(CC(=O)Nc2ccc(Br)cn2)c(=O)c2cccn12`, 0.0811%.
As for `CN(C)/C=C/C=C1\CC/C(=C\C=C\N(C)C)C1=O`, the figure is 3.25%; as for `COc1cc2c(C(=O)NCC3CCCO3)cn(CC(C)C)c(=O)c2cc1OC` (stereo not shown), -2.59%.
As for `NC(=O)C(=O)c1cn(Cc2ccccc2)c2ccccc12`, the figure is 7.51%.
Regarding `CCCOc1ccc(CNC(=O)Cn2nc(C)n3cccc3c2=O)cc1`, the “% Inhibition @ 10 uM” value is on record as -4.95%.
As for `O=C(NCc1ccc(Cl)cc1)C1CCCN(S(=O)(=O)c2ccc3nc(O)ccc3c2)C1` (stereo not shown), the figure is -3.73%; as for `CCCCSC(CC(=O)O)C(=O)O` (stereo not shown), -1.29%.
`C1=C(c2ccccc2)CCN(c2nc3ccccc3n3cnnc23)C1`: the “% Inhibition @ 10 uM” value is listed as 20.7%.
`O=C(Nc1ccc(-c2ccccc2)cc1)c1ccncc1`: the “% Inhibition @ 10 uM” value is listed as -0.736%.
For the molecule `FC(F)(F)c1ccc(CN2CCN(Cc3cccnc3)CC2)cc1`, the “% Inhibition @ 10 uM” value is given as -3.13%.
As to `FC(F)Oc1ccc(C2=CC(c3cccc(Cl)c3)n3ncnc3N2)cc1` (stereo not shown), the “% Inhibition @ 10 uM” value is listed as -1.62%.
`CCn1c(C(=O)O)cc2oc3ccccc3c21`: the “% Inhibition @ 10 uM” value is listed as -3.34%.
For `CC(C)CCNC(=O)c1cc(-c2ccncc2)nc2ccc(S(=O)(=O)N3CCC(C)CC3)cc12`, the “% Inhibition @ 10 uM” value is 2.35%.
As for `Cc1ccc(Nc2nc(-c3ccc(F)cc3)cs2)cc1C`, the “% Inhibition @ 10 uM” value is reported as -5.94%.
As to `c1ccc2nc3c(nc2c1)c1ccccc1n3CN1CCCCC1`, the “% Inhibition @ 10 uM” value is reported as -8.7%.
For the molecule `CN1CCCN(Cc2coc3ccccc3c2=O)CC1`, the “% Inhibition @ 10 uM” value is listed as -1.07%.
For `Cn1c(=O)c(C(=O)c2ccc(Cl)cc2)c(O)c2ccccc21`, the “% Inhibition @ 10 uM” value is given as -1.24%.
With `CCCO/C(O)=C1\C(C)=NC2=C(C(=O)CC(c3ccccc3OC)C2)C1c1coc2ccccc2c1=O` (stereo not shown), the “% Inhibition @ 10 uM” value was 2.09%.
As for `N#CCNC(=O)C(CC1CCCCC1)C(=O)NCCc1cccs1` (stereo not shown), the figure is -5.21%.
With `CCN(C(=O)c1c(OC)cccc1OC)c1ccccc1C`, the “% Inhibition @ 10 uM” value is 4.06%.
On to `O=C(c1ccccc1)C1(C(=O)c2ccccc2)CCCC1`, for which the “% Inhibition @ 10 uM” value is -0.261%.
As for `Cc1cccc(Cn2c(C)c(C)c3cc(C(=O)NCCN4CCOCC4)ccc32)c1`, the figure is -1.19%; as for `Cc1cc(NC(=O)CCN2CCN(c3ccc(Cl)cc3)CC2)no1`, -1.92%.
For `CCOc1ccc(-n2cc(-c3ccccc3)c3c(N4CCOCC4)ncnc32)cc1`, the “% Inhibition @ 10 uM” value is 4.46%.
Take `C=CCOc1ccc(C2c3c(oc4cc(C)c(C)cc4c3=O)C(=O)N2CCOC)cc1OC` (stereo not shown): the “% Inhibition @ 10 uM” value is on record as -2.91%.
On to `C=CCNC(=O)CN(Cc1ccccc1)S(=O)(=O)c1ccc(Cl)cc1`, for which the “% Inhibition @ 10 uM” value is 3.17%.
The value for `Cc1c(C(=O)NCCc2ccsc2)sc2nc3n(c(=O)c12)CCCCC3` was -1.97%; that for `CCCC(NC(=O)CCc1c(C)nc2c(c1C)c(=O)n(C)c(=O)n2C)c1cccs1` (stereo not shown) was 1.91%.
Regarding `O=C(Nc1nncs1)C(Cc1ccccc1)N1C(=O)C2C3C=CC(C3)C2C1=O` (stereo not shown), the “% Inhibition @ 10 uM” value stood at 5.81%.
As for `N=C(Cc1cccs1)NOC(=O)C12CC3CC(CC(C3)C1)C2`, the figure is 3.72%; as for `C=CCNC(=O)c1cc2c(=O)n3cc(C)ccc3nc2n(CCCOCC)c1=N`, -1.47%.
As for `Cc1ccc(S(=O)(=O)Nc2ccccc2OC(F)(F)C(F)C(F)(F)F)cc1` (stereo not shown), the figure is -4.61%; as for `O=C(COc1ccc(/C=c2/sc3n(c2=O)CCN=3)cc1)Nc1ccccc1Cl`, -2.8%; as for `CC(C)Cn1c(=O)c2sccc2n2c(CCCC(=O)NCc3ccc4c(c3)OCO4)nnc12`, -0.759%.
Take `COCC(=O)NCCc1nc(-c2ccccc2)cs1`: the “% Inhibition @ 10 uM” value was 2.17%.
For `Fc1ccccc1Oc1nc(N2CCOCC2)nc(N2CCOCC2)n1`, the “% Inhibition @ 10 uM” value was 2.99%.
As for `O=C(Nc1ccc(Cl)c2c1C(=O)c1ccccc1C2=O)c1ccc([N+](=O)[O-])cc1Cl`, the “% Inhibition @ 10 uM” value came out at 0.98%.
For `Clc1nc(NCc2ccccc2)nc(N2CCCCC2)n1`, the “% Inhibition @ 10 uM” value is reported as -0.856%.
`N=C(NOC(=O)COc1ccccc1)c1cccnc1`: the “% Inhibition @ 10 uM” value is given as -5.08%.
On to `Cc1cc2oc(C(=O)N(Cc3ccccc3)c3ccccn3)cc(=O)c2cc1C`, for which the “% Inhibition @ 10 uM” value is on record as -1.47%.
The value for `CCN(CC)c1nc(Nc2ccc(OC)cc2)nc(Nc2ccc(OC)cc2)n1` was -4.35%.
Regarding `O=C1CC(C(F)(F)C(F)F)=Nc2ccccc2N1`, the “% Inhibition @ 10 uM” value was 4.12%.
Take `O=C1NCCc2c1[nH]c1ccc(C#Cc3ccccc3)cc21`: the “% Inhibition @ 10 uM” value was found to be 1.54%.
As for `CNC(=O)CCc1nc(-c2ccccc2C)no1`, the figure is 0.366%; as for `O=C(CCCN1C(=O)c2ccccc2C1=O)Nc1ccccc1`, -1.76%.
With `Cc1cccc(N/C=C2/C(=O)NC(=O)N(c3cccc(Cl)c3)C2=O)c1`, the “% Inhibition @ 10 uM” value is reported as -2.8%.
As for `O=C(NCCN1CCN(C(=O)c2ccco2)CC1)C(=O)NCc1ccccc1`, the “% Inhibition @ 10 uM” value was 5.52%.
As for `CCOc1ccccc1NS(=O)(=O)c1ccc(OC)c(Cl)c1Cl`, the “% Inhibition @ 10 uM” value is 4.61%.
As for `CN(C)CCCN(CCCN(C)C)Cc1ccccc1[N+](=O)[O-]`, the “% Inhibition @ 10 uM” value came to 3.24%.
Turning to `Cc1nnc2sc(NC(=O)c3ccc(OCC(C)C)cc3)nn12`, the “% Inhibition @ 10 uM” value is on record as 3.33%.
For `CCCCCC(=O)Nc1nnc(Cc2ccc(OC)c(OC)c2)s1`, the “% Inhibition @ 10 uM” value is reported as 0.997%.
For the molecule `O=c1oc2ccc3ccccc3c2cc1-c1nc(-c2cccs2)no1`, the “% Inhibition @ 10 uM” value is 1.35%.
Consider `CCc1ccc(S(=O)(=O)c2nnn3c2nc(NCC2CCCO2)c2cc(Cl)ccc23)cc1` (stereo not shown), for which the “% Inhibition @ 10 uM” value is reported as -3.08%.
On to `CCOc1ccccc1/C=C1/NC(=O)N(Cc2ccc(F)cc2)C1=O`, for which the “% Inhibition @ 10 uM” value was -1.44%.
As for `Clc1ccccc1CN1CCc2c([nH]c3ccccc23)C1`, the figure is -1.77%; as for `COc1ccc2c(Cl)c(C(=O)O)sc2c1`, 3%; as for `Cc1ccc(Oc2cc(-n3nc(C)cc3C)ncn2)cc1`, 1.57%.
Consider `C#CCOC(=O)CNS(=O)(=O)c1c(C)cc(C)cc1C`, for which the “% Inhibition @ 10 uM” value is given as 2.86%.
For the molecule `Cc1cccc(-c2[nH]c3c(C#N)cnn3c2NC2CCC(C)CC2)c1` (stereo not shown), the “% Inhibition @ 10 uM” value came out at 5.39%.
Consider `CC1=CC2=NCC(O)CN2C=C1` (stereo not shown), for which the “% Inhibition @ 10 uM” value is recorded as 3.54%.
As to `Cc1cccn2c(=O)c(/C=C(\C#N)C(=O)NC3CCCC3)c(Oc3ccc(C(C)(C)C)cc3)nc12`, the “% Inhibition @ 10 uM” value is reported as 0.101%.
With `NC(=O)C1(N2CCCCC2)CCN(c2ncnc3[nH]cnc23)CC1`, the “% Inhibition @ 10 uM” value was -3.24%.
Turning to `N#Cc1cnn2c(C(F)(F)F)cc(-c3ccc(Cl)cc3)nc12`, the “% Inhibition @ 10 uM” value is -4.67%.
For the molecule `CCOC(=O)c1c(C)[nH]c(C)c1S(=O)(=O)N1CCCC(C(=O)N2CCCC2)C1` (stereo not shown), the “% Inhibition @ 10 uM” value is given as 0.706%.
As to `Cc1ccc(C(=O)CSc2ncnc3ccccc23)o1`, the “% Inhibition @ 10 uM” value was -2.28%.
In the case of `O=C(CCCn1sc2ccccc2c1=O)NC1CCCc2ccccc21` (stereo not shown), the “% Inhibition @ 10 uM” value was -8.56%.

The record behind these values is publication PMC6919601, “Identification of Plasmodium dipeptidyl aminopeptidase allosteric inhibitors by high throughput screening” (PLoS ONE, 2019).
